# Results as given in the supplement of paper PMC8728848.
# The list shows a part of the results.
# B1: TIM1 (protein)
# chain: ADGIQSVKVGGEAGPSVTLPCHYSGAVTSMCWNRGSCSLFTCQNGIVWTNGTHVTYRKDTRYKLLGDLSRRDVSLTIENTAVSDSGVYCCRVEHRGWFNDMKITVSLEIVPPHHHHHH
# Tests used:
# Assay in all cases: glycan array binding signal (z-score within array); higher = stronger binding
# Conditions in all cases: glycan notation: IUPAC condensed, linker removed
# [1] = biological target: Gal(b1-4)GlcNAc(b1-3)Gal(b1-4)GlcNAc(b1-2)[Gal(b1-4)GlcNAc(b1-3)Gal(b1-4)GlcNAc(b1-6)]Man(a1-6)[Gal(b1-4)GlcNAc(b1-3)Gal(b1-4)GlcNAc(b1-2)Man(a1-3)]Man(b1-4)GlcNAc(b1-4)GlcNAc
# Summary of the method: (§1)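 Glycan array data came from 3228 arrays in the Consortium for Functional Glycomics database, and only arrays with an available protein sequence were kept. Glycan names were put into IUPAC-condensed notation, and columns mapping to the same glycan were averaged. The binding signal is a within-array Z-score, averaged across arrays of one protein sequence run at different concentrations or buffers and across linkers. A negative Z-score can be read as non-binding.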
# [2] = biological target: Gal(b1-4)GlcNAc(b1-3)Gal(b1-4)GlcNAc(b1-2)[Gal(b1-4)GlcNAc(b1-3)Gal(b1-4)GlcNAc(b1-6)]Man(a1-6)[Gal(b1-4)GlcNAc(b1-3)Gal(b1-4)GlcNAc(b1-2)Man(a1-3)]Man(b1-4)GlcNAc(b1-4)[Fuc(a1-6)]GlcNAc
# Summary of the method: as §1
# [3] = biological target: Gal(b1-4)GlcNAc(b1-3)Gal(b1-4)GlcNAc(b1-3)Gal(b1-4)GlcNAc
# Summary of the method: as §1
# [4] = biological target: Gal(b1-4)GlcNAc(b1-3)Gal(b1-4)GlcNAc(b1-3)Gal(b1-4)GlcNAc(b1-2)Man(a1-3)[Gal(b1-4)GlcNAc(b1-3)Gal(b1-4)GlcNAc(b1-3)Gal(b1-4)GlcNAc(b1-2)Man(a1-6)]Man(b1-4)GlcNAc(b1-4)GlcNAc
# Summary of the method: as §1
# [5] = biological target: Gal(b1-4)GlcNAc(b1-3)Gal(b1-4)GlcNAc(b1-3)Gal(b1-4)GlcNAc(b1-2)Man(a1-3)[Gal(b1-4)GlcNAc(b1-3)Gal(b1-4)GlcNAc(b1-3)Gal(b1-4)GlcNAc(b1-2)Man(a1-6)]Man(b1-4)GlcNAc(b1-4)[Fuc(a1-6)]GlcNAc
# Summary of the method: as §1
# [6] = biological target: Gal(b1-4)GlcNAc(b1-3)Gal(b1-4)GlcNAc(b1-3)Gal(b1-4)GlcNAc(b1-2)[Gal(b1-4)GlcNAc(b1-3)Gal(b1-4)GlcNAc(b1-3)Gal(b1-4)GlcNAc(b1-6)]Man(a1-6)[Gal(b1-4)GlcNAc(b1-3)Gal(b1-4)GlcNAc(b1-3)Gal(b1-4)GlcNAc(b1-2)Man(a1-3)]Man(b1-4)GlcNAc(b1-4)[Fuc(a1-6)]GlcNAc
# Summary of the method: as §1
# [7] = biological target: Gal(b1-4)GlcNAc(b1-3)Gal(b1-4)GlcNAc(b1-3)Gal(b1-4)GlcNAc(b1-3)Gal(b1-4)GlcNAc(b1-2)Man(a1-3)[Gal(b1-4)GlcNAc(b1-3)Gal(b1-4)GlcNAc(b1-3)Gal(b1-4)GlcNAc(b1-3)Gal(b1-4)GlcNAc(b1-2)Man(a1-6)]Man(b1-4)GlcNAc(b1-4)GlcNAc
# Summary of the method: as §1
# [8] = biological target: Gal(b1-4)GlcNAc(b1-3)Gal(b1-4)GlcNAc(b1-3)Gal(b1-4)GlcNAc(b1-3)Gal(b1-4)GlcNAc(b1-2)Man(a1-3)[Gal(b1-4)GlcNAc(b1-3)Gal(b1-4)GlcNAc(b1-3)Gal(b1-4)GlcNAc(b1-3)Gal(b1-4)GlcNAc(b1-2)Man(a1-6)]Man(b1-4)GlcNAc(b1-4)[Fuc(a1-6)]GlcNAc
# Summary of the method: as §1
# [9] = biological target: Gal(b1-4)GlcNAc(b1-3)Gal(b1-4)GlcNAc(b1-3)Gal(b1-4)GlcNAc(b1-3)Gal(b1-4)GlcNAc(b1-2)[Gal(b1-4)GlcNAc(b1-3)Gal(b1-4)GlcNAc(b1-3)Gal(b1-4)GlcNAc(b1-3)Gal(b1-4)GlcNAc(b1-6)]Man(a1-6)[Gal(b1-4)GlcNAc(b1-3)Gal(b1-4)GlcNAc(b1-3)Gal(b1-4)GlcNAc(b1-3)Gal(b1-4)GlcNAc(b1-2)Man(a1-3)]Man(b1-4)GlcNAc(b1-4)[Fuc(a1-6)]GlcNAc
# Summary of the method: as §1
# [10] = biological target: Gal(b1-4)GlcNAc(b1-3)Gal(b1-4)GlcNAc(b1-3)Gal(b1-4)GlcNAc(b1-3)Gal(b1-4)GlcNAc(b1-3)Gal(b1-4)GlcNAc(b1-2)Man(a1-3)[Gal(b1-4)GlcNAc(b1-3)Gal(b1-4)GlcNAc(b1-3)Gal(b1-4)GlcNAc(b1-3)Gal(b1-4)GlcNAc(b1-3)Gal(b1-4)GlcNAc(b1-2)Man(a1-6)]Man(b1-4)GlcNAc(b1-4)GlcNAc
# Summary of the method: as §1
# [11] = biological target: Gal(b1-4)GlcNAc(b1-3)Gal(b1-4)GlcNAc(b1-3)Gal(b1-4)GlcNAc(b1-3)Gal(b1-4)GlcNAc(b1-3)Gal(b1-4)GlcNAc(b1-2)Man(a1-3)[Gal(b1-4)GlcNAc(b1-3)Gal(b1-4)GlcNAc(b1-3)Gal(b1-4)GlcNAc(b1-3)Gal(b1-4)GlcNAc(b1-3)Gal(b1-4)GlcNAc(b1-2)Man(a1-6)]Man(b1-4)GlcNAc(b1-4)[Fuc(a1-6)]GlcNAc
# Summary of the method: as §1
# [12] = biological target: Gal(b1-4)GlcNAc(b1-3)Gal(b1-4)GlcNAc(b1-3)Gal(b1-4)GlcNAc(b1-3)Gal(b1-4)GlcNAc(b1-3)Gal(b1-4)GlcNAc(b1-2)[Gal(b1-4)GlcNAc(b1-3)Gal(b1-4)GlcNAc(b1-3)Gal(b1-4)GlcNAc(b1-3)Gal(b1-4)GlcNAc(b1-3)Gal(b1-4)GlcNAc(b1-6)]Man(a1-6)[Gal(b1-4)GlcNAc(b1-3)Gal(b1-4)GlcNAc(b1-3)Gal(b1-4)GlcNAc(b1-3)Gal(b1-4)GlcNAc(b1-3)Gal(b1-4)GlcNAc(b1-2)Man(a1-3)]Man(b1-4)GlcNAc(b1-4)[Fuc(a1-6)]GlcNAc
# Summary of the method: as §1
# [13] = biological target: Gal(b1-4)GlcNAc(b1-3)Gal(b1-4)GlcNAc(b1-3)Gal(b1-4)GlcNAc(b1-3)Gal(b1-4)GlcNAc(b1-3)Gal(b1-4)GlcNAc(b1-3)Gal(b1-4)GlcNAc(b1-2)Man(a1-3)[Gal(b1-4)GlcNAc(b1-3)Gal(b1-4)GlcNAc(b1-3)Gal(b1-4)GlcNAc(b1-3)Gal(b1-4)GlcNAc(b1-3)Gal(b1-4)GlcNAc(b1-3)Gal(b1-4)GlcNAc(b1-2)Man(a1-6)]Man(b1-4)GlcNAc(b1-4)GlcNAc
# Summary of the method: as §1
# [14] = biological target: Gal(b1-4)GlcNAc(b1-3)Gal(b1-4)GlcNAc(b1-3)GalNAc
# Summary of the method: as §1
# [15] = biological target: Gal(b1-4)GlcNAc(b1-3)Gal(b1-4)GlcNAc(b1-3)[Gal(b1-4)GlcNAc(b1-3)Gal(b1-4)GlcNAc(b1-6)]GalNAc
# Summary of the method: as §1
# [16] = biological target: Gal(b1-4)GlcNAc(b1-3)Gal(b1-4)GlcNAc(b1-6)[Gal(b1-3)]GalNAc
# Summary of the method: as §1
# [17] = biological target: Gal(b1-4)GlcNAc(b1-3)Gal(b1-4)[Fuc(a1-3)]GlcNAc(b1-3)Gal(b1-4)[Fuc(a1-3)]GlcNAc
# Summary of the method: as §1
# [18] = biological target: Gal(b1-4)GlcNAc(b1-3)GalNAc
# Summary of the method: as §1
# [19] = biological target: Gal(b1-4)GlcNAc(b1-3)[Fuc(a1-3)GlcNAc(b1-6)]Gal(b1-4)Glc
# Summary of the method: as §1
# [20] = biological target: Gal(b1-4)GlcNAc(b1-3)[Gal(b1-4)GlcNAc(b1-6)]Gal(b1-4)GlcNAc
# Summary of the method: as §1
# [21] = biological target: Gal(b1-4)GlcNAc(b1-3)[GlcNAc(b1-6)]Gal(b1-4)GlcNAc
# Summary of the method: as §1
# [22] = biological target: Gal(b1-4)GlcNAc(b1-6)Gal(b1-4)GlcNAc
# Summary of the method: as §1
binder,measurement,setting,value
B1,glycan array binding signal (z-score),[1],1.76
same,glycan array binding signal (z-score),[2],0.621
same,glycan array binding signal (z-score),[3],-0.231
same,glycan array binding signal (z-score),[4],3.39
same,glycan array binding signal (z-score),[5],0.165
same,glycan array binding signal (z-score),[6],0.754
same,glycan array binding signal (z-score),[7],0.208
same,glycan array binding signal (z-score),[8],0.223
same,glycan array binding signal (z-score),[9],0.21
same,glycan array binding signal (z-score),[10],0.004
same,glycan array binding signal (z-score),[11],-0.05
same,glycan array binding signal (z-score),[12],0.517
same,glycan array binding signal (z-score),[13],0.132
same,glycan array binding signal (z-score),[14],1.09
same,glycan array binding signal (z-score),[15],2.45
same,glycan array binding signal (z-score),[16],1.56
same,glycan array binding signal (z-score),[17],-0.141
same,glycan array binding signal (z-score),[18],-0.245
same,glycan array binding signal (z-score),[19],-0.247
same,glycan array binding signal (z-score),[20],-0.227
same,glycan array binding signal (z-score),[21],-0.243
same,glycan array binding signal (z-score),[22],-0.165
